Results as given in PubChem BioAssay AID1768 (National Center for Advancing Translational Sciences (NCATS), 2009).
Among all 270,000 compounds or so, about 620 (0.23%) were called active. This list was built around the results that the source calls inconclusive (neither active nor inactive); the mix of calls is not that of the screen. Calls follow the shape of the dose curve; as a rule, active = well fitted inhibition curve with a large enough effect in the polarisation, with a control signal flat (not every such curve was filed as active); inconclusive = small, poorly fitted or top-dose-only effect, or effect the other way, or a change in a side signal; inactive = no such curve, though single readings can be large or run the other way; the % refers to the polarisation. Where the call is inconclusive, the potency comes from a doubtful curve fit. “Side channel” marks fits to a control or component signal instead of the main read-out.

Target: Menin (Homo sapiens) (UniProt O00255)
Chain of UniProt O00255 (O00255 whole entry, looked up): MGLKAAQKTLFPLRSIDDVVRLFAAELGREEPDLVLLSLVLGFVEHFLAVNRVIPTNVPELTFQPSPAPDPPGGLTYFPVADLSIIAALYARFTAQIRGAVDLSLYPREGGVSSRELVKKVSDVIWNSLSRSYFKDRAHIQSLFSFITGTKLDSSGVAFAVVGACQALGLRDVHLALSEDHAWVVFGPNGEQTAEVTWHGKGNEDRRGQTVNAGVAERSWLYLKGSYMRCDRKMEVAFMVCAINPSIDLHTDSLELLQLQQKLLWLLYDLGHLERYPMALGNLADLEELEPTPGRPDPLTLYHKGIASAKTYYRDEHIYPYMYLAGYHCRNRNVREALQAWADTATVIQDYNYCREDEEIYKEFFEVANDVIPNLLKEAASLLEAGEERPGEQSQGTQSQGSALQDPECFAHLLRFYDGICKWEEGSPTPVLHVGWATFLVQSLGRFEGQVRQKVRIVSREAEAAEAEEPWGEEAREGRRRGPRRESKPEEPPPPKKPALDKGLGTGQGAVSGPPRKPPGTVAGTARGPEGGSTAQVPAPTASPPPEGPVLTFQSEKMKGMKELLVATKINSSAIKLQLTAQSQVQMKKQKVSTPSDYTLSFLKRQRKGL
Test: qHTS Assay for Inhibitors Targeting the Menin-MLL Interaction in MLL Related Leukemias: Competition With Texas Red Labeled MLL-derived Mutant Peptide; as to FP activity change, negative = inhibition: % of control where 0% means no effect
Conditions: fluorescence polarization; FP activity change, negative = inhibition: at 61.6 µM (top of the series)
Potency is read from the fitted curve at half-maximal effect; tags tell the direction and shape of the fitted curve or compound fluorescence and quenching.

| Structure (SMILES) | Potency | FP activity change, negative = inhibition |
| --- | --- | --- |
| N#Cc1cccc(NC(=O)COC(=O)c2cccc(N3C(=O)c4ccccc4C3=O)c2)c1 | inconclusive: 10 µM [quencher, side channel, partial curve] |  |
| O=C(OCC(=O)N1CCN(C(=O)c2ccco2)CC1)c1cc(-c2ccc(F)cc2)nc2ccccc12 | inconclusive: 14.1 µM [quencher, side channel, partial curve] |  |
| NC(=O)c1c(NC(=O)c2cccs2)sc2c1CCCCCC2 | inconclusive: 20 µM [quencher, side channel, partial curve] |  |
| COc1ccccc1-n1c(SCc2cc(=O)oc3cc(O)ccc23)nc2ccccc2c1=O | inconclusive: 39.8 µM [inhibitor, single point] |  |
| CCC1Oc2ccc(C)cc2N(CC(=O)NCCCN2CCCCC2C)C1=O (stereo not given) | inconclusive: 44.7 µM [inhibitor, partial curve] |  |
| O=[N+]([O-])c1cccc(N2Cc3ccccc3C2)c1 | inconclusive: 28.2 µM [quencher, side channel, single point] |  |
| CCn1c(=O)c(=O)[nH]c2cc(C(=O)NC3CCCc4ccccc43)ccc21 (stereo not given) | inconclusive: 39.8 µM [inhibitor, single point] |  |
| Cc1ccc2cc3c(NC(=O)c4cccnc4)nn(C)c3nc2c1 | inconclusive: 12.6 µM [inhibitor, partial curve] |  |
| CC(C)Sc1nc(N)nc(-c2cccs2)c1C#N | inconclusive: 25.1 µM [quencher, side channel, partial curve] |  |
| Cc1ccc(NC(=O)C2CCCN2S(=O)(=O)c2ccc(-c3ccc(=O)[nH]n3)s2)c(C)c1 (stereo not given) | inconclusive: 17.8 µM [quencher, side channel, single point] |  |
| COc1ccc2[nH]cc(CCNc3nc(-c4c(C)noc4C)nc4ccccc34)c2c1 | inconclusive: 6.31 µM [quencher, side channel, partial curve] |  |
| O=c1c(C/C=C/c2ccccc2)c(O)ccn1Cc1ccc(Cl)cc1Cl | inconclusive: 25.1 µM [inhibitor, single point] |  |
| CCN(CC)S(=O)(=O)c1ccc(/C=C/C(=O)Nc2cccc(F)c2)cc1 | inconclusive: 12.6 µM [quencher, side channel, partial curve] |  |
| O=C(NC1CCCCC1)N(Cc1ccc(F)cc1)Cc1nc2ccccc2c(=O)[nH]1 | inconclusive: 5.01 µM [fluorescent, side channel, full curve, poor fit] |  |
| Cc1[nH]n(-c2ccccc2)c(=O)c1/C=C1/C=c2ccccc2=N1 | inconclusive: 39.8 µM [quencher, side channel, partial curve] |  |
| Fc1ccccc1Cn1c2[n+](c3ccc(C(F)(F)F)cc31)CCCCC2 |  | inactive: -8.95% |
| O=C(CN(CCc1ccccc1)S(=O)(=O)c1ccc(Cl)cc1)N/N=C/c1ccccc1C(=O)O | inconclusive: 39.8 µM [quencher, side channel, single point] |  |
| CCCCOc1cccc(C2C(C(=O)c3ccc(C)o3)=C(O)C(=O)N2c2nnc(C)s2)c1 (stereo not given) | inconclusive: 31.6 µM [quencher, side channel, single point] |  |

| Structure (SMILES) | Potency | FP activity change, negative = inhibition |
| --- | --- | --- |
| COC(=O)c1cc(NS(=O)(=O)c2ccc(NCc3cccnc3)c([N+](=O)[O-])c2)cc(C(=O)OC)c1 | inconclusive: 28.2 µM [quencher, side channel, partial curve] |  |
| O=C(Cc1ccccc1)Nc1nnc(-c2cccs2)s1 |  | inactive: -4.57% |
| COc1ccccc1CNCC(=O)Nc1ccc(N(C)C)cc1 | inconclusive: 20 µM [inhibitor, partial curve, poor fit] |  |
| O=C1c2ccccc2-c2onc3ccc(NCc4ccco4)c1c23 | inconclusive: 25.1 µM [fluorescent, side channel, partial curve] |  |
| Cc1ccc(NC(=O)CCN2C(=O)c3ccccc3C2=O)cc1 |  | inactive: 0.339% |
| COc1ccc(C2C(C(=O)OCC(=O)Nc3ccc(C)cc3)CCC(=O)N2c2ccc(OC)cc2)cc1 (stereo not given) | inconclusive: 20 µM [fluorescent, side channel, partial curve] |  |
| CCN1CCN(Cc2ccc(OCc3ccccc3)cc2)CC1 | inconclusive: 35.5 µM [inhibitor, single point] |  |
| Cc1cc(C)cc(NS(=O)(=O)c2ccc(NC(=S)NC(=O)c3cccs3)cc2)c1 | inconclusive: 7.94 µM [inhibitor, full curve] |  |
| CN(C)c1ccc(/C=C/c2cc[n+](C)cc2)cc1 | inconclusive: 14.1 µM [fluorescent, side channel, partial curve] |  |
| C#CCOCCOCCOCCNc1nc(N2CCN(C(=O)[C@H](Cc3cc4ccccc4[nH]3)n3cc([C@@H](N)C(C)CC)nn3)CC2)nc(N2CCN(C(=O)[C@H](CCCCN)n3cc([C@@H](N)CC(C)C)nn3)CC2)n1 (stereo not given in full) | inconclusive: 0.631 µM [fluorescent, side channel, full curve, poor fit] |  |
| CCOc1ccc(-c2nc(-c3cccs3)c(CC(=O)O)s2)cc1OC | inconclusive: 28.2 µM [quencher, side channel, single point] |  |
| CCCNC(=O)CNC(=S)N(Cc1ccccc1F)C1CCCCC1 | inconclusive: 10 µM [fluorescent, side channel, partial curve] |  |
| Cc1cc(C(=O)Nc2ccc(C(=O)O)cc2)c(C)o1 |  | inactive: -0.471% |
| CC(C)CC1CCCCC1OC(=O)CN1CCCCC1 (stereo not given) | inconclusive: 4.47 µM [fluorescent, side channel, single point] |  |
| COc1cccc(CNC(=O)CSc2nnc3c(n2)[nH]c2ccccc23)c1 | inconclusive: 39.8 µM [fluorescent, side channel, single point] |  |
| CC(C)Cn1cc(C(=O)N2CCC(C)CC2)c2c3ccccc3n(C)c2c1=O | inconclusive: 7.08 µM [fluorescent, side channel, partial curve] |  |
| Cc1ccccc1NC(=O)CCN1CCc2ccccc2C1 | inconclusive: 20 µM [inhibitor, partial curve] |  |
